# Results: the supplement of paper PMC8728848
# Some of the results follow.
# B1: UDA (Urtica dioica), P11218 (protein)
# chain: MMMRFLSAVVIMSSAMAVGLVSAQRCGSQGGGGTCPALWCCSIWGWCGDSEPYCGRTCENKCWSGERSDHRCGAAVGNPPCGQDRCCSVHGWCGGGNDYCSGSKCQYRCSSSVRGPRVALSGNSTANSIGNVVVTEPLFDQMFSHRKDCPSQGFYSYHSFLVAAESFPAFGTIGDVATRKREVAAFLAHISQATSGERSDVENPHAWGLCHINTTTVTENDFCTSSDWPCAAGKKYSPRGPIQLTHNFNYGLAGQAIGEDLIQNPDLVEKDPIISFKTALWFWMSQHDNKPSCHDIVLNANSAANRIPNKGVIGNIISRAFGHDDFAVRSSSIGFYKRYCDMLGVSYGHDLKYWFDNTPSSEFQRIQMRVAA
# What was measured:
# Assay in all cases: glycan array binding signal (z-score within array); higher = stronger binding
# Details in all cases: glycan notation: IUPAC condensed, linker removed
# [1] = target: Neu5Ac(a2-6)Gal(b1-4)GlcNAc(b1-2)Man(a1-3)[GlcNAc(b1-2)Man(a1-6)]Man(b1-4)GlcNAc(b1-4)GlcNAc
# In short: (§1)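 Columns mapping to the same glycan were averaged after glycan names were converted to IUPAC-condensed notation. The data come from 3228 arrays in the Consortium for Functional Glycomics database, limited to those with an available protein sequence. Binding is reported as a within-array Z-score averaged across arrays of one protein sequence and across linkers.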
# [2] = target: Neu5Ac(a2-6)Gal(b1-4)GlcNAc(b1-2)Man(a1-3)[GlcNAc(b1-4)][Neu5Ac(a2-6)Gal(b1-4)GlcNAc(b1-2)Man(a1-6)]Man(b1-4)GlcNAc(b1-4)GlcNAc
# In short: as §1
# [3] = target: Neu5Ac(a2-6)Gal(b1-4)GlcNAc(b1-2)Man(a1-3)[Man(a1-6)]Man(b1-4)GlcNAc(b1-4)GlcNAc
# In short: as §1
# [4] = target: Neu5Ac(a2-6)Gal(b1-4)GlcNAc(b1-2)Man(a1-3)[Neu5Ac(a2-3)Gal(b1-4)GlcNAc(b1-2)Man(a1-6)]Man(b1-4)GlcNAc(b1-4)GlcNAc
# In short: as §1
# [5] = target: Neu5Ac(a2-6)Gal(b1-4)GlcNAc(b1-2)Man(a1-3)[Neu5Ac(a2-6)Gal(b1-4)GlcNAc(b1-2)Man(a1-6)]Man(b1-4)GlcNAc(b1-4)GlcNAc
# In short: as §1
# [6] = target: Neu5Ac(a2-6)Gal(b1-4)GlcNAc(b1-2)Man(a1-3)[Neu5Ac(a2-6)Gal(b1-4)GlcNAc(b1-2)Man(a1-6)]Man(b1-4)GlcNAc(b1-4)[Fuc(a1-6)]GlcNAc
# In short: as §1
# [7] = target: Neu5Ac(a2-6)Gal(b1-4)GlcNAc(b1-2)Man(a1-6)Man(b1-4)GlcNAc(b1-4)GlcNAc
# In short: as §1
# [8] = target: Neu5Ac(a2-6)Gal(b1-4)GlcNAc(b1-2)Man(a1-6)[Gal(b1-4)GlcNAc(b1-2)Man(a1-3)]Man(b1-4)GlcNAc(b1-4)GlcNAc
# In short: as §1
# [9] = target: Neu5Ac(a2-6)Gal(b1-4)GlcNAc(b1-2)Man(a1-6)[GlcNAc(b1-2)Man(a1-3)]Man(b1-4)GlcNAc(b1-4)GlcNAc
# In short: as §1
# [10] = target: Neu5Ac(a2-6)Gal(b1-4)GlcNAc(b1-2)Man(a1-6)[Man(a1-3)]Man(b1-4)GlcNAc(b1-4)GlcNAc
# In short: as §1
# [11] = target: Neu5Ac(a2-6)Gal(b1-4)GlcNAc(b1-2)[Neu5Ac(a2-6)Gal(b1-4)GlcNAc(b1-4)]Man(a1-3)[GlcNAc(b1-4)][Neu5Ac(a2-6)Gal(b1-4)GlcNAc(b1-2)[Neu5Ac(a2-6)Gal(b1-4)GlcNAc(b1-6)]Man(a1-6)]Man(b1-4)GlcNAc(b1-4)GlcNAc
# In short: as §1
# [12] = target: Neu5Ac(a2-6)Gal(b1-4)GlcNAc(b1-2)[Neu5Ac(a2-6)Gal(b1-4)GlcNAc(b1-4)]Man(a1-3)[GlcNAc(b1-4)][Neu5Ac(a2-6)Gal(b1-4)GlcNAc(b1-4)Man(a1-6)]Man(b1-4)GlcNAc(b1-4)GlcNAc
# In short: as §1
# [13] = target: Neu5Ac(a2-6)Gal(b1-4)GlcNAc(b1-2)[Neu5Ac(a2-6)Gal(b1-4)GlcNAc(b1-6)]Man(a1-6)[Neu5Ac(a2-6)Gal(b1-4)GlcNAc(b1-2)Man(a1-3)][GlcNAc(b1-4)]Man(b1-4)GlcNAc(b1-4)GlcNAc
# In short: as §1
# [14] = target: Neu5Ac(a2-6)Gal(b1-4)GlcNAc(b1-3)Gal(b1-3)GlcNAc
# In short: as §1
# [15] = target: Neu5Ac(a2-6)Gal(b1-4)GlcNAc(b1-3)Gal(b1-4)GlcNAc
# In short: as §1
# [16] = target: Neu5Ac(a2-6)Gal(b1-4)GlcNAc(b1-3)Gal(b1-4)GlcNAc(b1-2)Man(a1-3)[Neu5Ac(a2-6)Gal(b1-4)GlcNAc(b1-3)Gal(b1-4)GlcNAc(b1-2)Man(a1-6)]GalNAc
# In short: as §1
# [17] = target: Neu5Ac(a2-6)Gal(b1-4)GlcNAc(b1-3)Gal(b1-4)GlcNAc(b1-3)Gal(b1-4)GlcNAc
# In short: as §1
# [18] = target: Neu5Ac(a2-6)Gal(b1-4)GlcNAc(b1-3)Gal(b1-4)GlcNAc(b1-3)Gal(b1-4)GlcNAc(b1-2)Man(a1-3)[Neu5Ac(a2-6)Gal(b1-4)GlcNAc(b1-3)Gal(b1-4)GlcNAc(b1-3)Gal(b1-4)GlcNAc(b1-2)Man(a1-6)]GalNAc
# In short: as §1
# [19] = target: Neu5Ac(a2-6)Gal(b1-4)GlcNAc(b1-3)Gal(b1-4)GlcNAc(b1-3)GalNAc
# In short: as §1
# [20] = target: Neu5Ac(a2-6)Gal(b1-4)GlcNAc(b1-3)Gal(b1-4)GlcNAc(b1-3)[Neu5Ac(a2-6)Gal(b1-4)GlcNAc(b1-3)Gal(b1-4)GlcNAc(b1-6)]GalNAc
# In short: as §1
# [21] = target: Neu5Ac(a2-6)Gal(b1-4)GlcNAc(b1-3)Gal(b1-4)GlcNAc(b1-6)[Gal(b1-3)]GalNAc
# In short: as §1
# [22] = target: Neu5Ac(a2-6)Gal(b1-4)GlcNAc(b1-3)Gal(b1-4)[Fuc(a1-3)]GlcNAc(b1-3)Gal(b1-4)[Fuc(a1-3)]GlcNAc
# In short: as §1
# [23] = target: Neu5Ac(a2-6)Gal(b1-4)GlcNAc(b1-3)GalNAc
# In short: as §1
# [24] = target: Neu5Ac(a2-6)Gal(b1-4)GlcNAc(b1-3)[Neu5Ac(a2-6)Gal(b1-4)GlcNAc(b1-6)]GalNAc
# In short: as §1
# [25] = target: Neu5Ac(a2-6)Gal(b1-4)GlcNAc(b1-6)GalNAc
# In short: as §1
# [26] = target: Neu5Ac(a2-6)Gal(b1-4)GlcNAc(b1-6)[Gal(b1-3)GlcNAc(b1-3)]Gal(b1-4)Glc
# In short: as §1
# [27] = target: Neu5Ac(a2-6)Gal(b1-4)GlcNAc(b1-6)[Gal(b1-3)]GalNAc
# In short: as §1
# [28] = target: Neu5Ac(a2-6)Gal(b1-4)GlcNAc6S
# In short: as §1
# [29] = target: Neu5Ac(a2-6)GalNAc
# In short: as §1
# [30] = target: Neu5Ac(a2-6)GalNAc(b1-4)GlcNAc
# In short: as §1
# [31] = target: Neu5Ac(a2-6)GalNAc(b1-4)GlcNAc6S
# In short: as §1
# [32] = target: Neu5Ac(a2-6)GlcNAc(b1-4)GlcNAc
# In short: as §1
binder,measurement,setting,value
B1,glycan array binding signal (z-score),[1],-0.126
same,glycan array binding signal (z-score),[2],-0.179
same,glycan array binding signal (z-score),[3],4.09
same,glycan array binding signal (z-score),[4],-0.173
same,glycan array binding signal (z-score),[5],-0.162
same,glycan array binding signal (z-score),[6],-0.169
same,glycan array binding signal (z-score),[7],-0.176
same,glycan array binding signal (z-score),[8],-0.178
same,glycan array binding signal (z-score),[9],-0.172
same,glycan array binding signal (z-score),[10],-0.174
same,glycan array binding signal (z-score),[11],-0.175
same,glycan array binding signal (z-score),[12],-0.181
same,glycan array binding signal (z-score),[13],-0.178
same,glycan array binding signal (z-score),[14],-0.183
same,glycan array binding signal (z-score),[15],-0.141
same,glycan array binding signal (z-score),[16],-0.152
same,glycan array binding signal (z-score),[17],-0.081
same,glycan array binding signal (z-score),[18],-0.106
same,glycan array binding signal (z-score),[19],-0.183
same,glycan array binding signal (z-score),[20],-0.099
same,glycan array binding signal (z-score),[21],-0.172
same,glycan array binding signal (z-score),[22],-0.185
same,glycan array binding signal (z-score),[23],-0.178
same,glycan array binding signal (z-score),[24],-0.179
same,glycan array binding signal (z-score),[25],-0.173
same,glycan array binding signal (z-score),[26],-0.18
same,glycan array binding signal (z-score),[27],-0.179
same,glycan array binding signal (z-score),[28],-0.194
same,glycan array binding signal (z-score),[29],-0.19
same,glycan array binding signal (z-score),[30],-0.175
same,glycan array binding signal (z-score),[31],-0.182
same,glycan array binding signal (z-score),[32],-0.121
